Test results published in the supplement of paper PMC5499739.
The full ranking holds about 16,000 sequences; the median of “Z-score” is about -0.37, and the highest 2% start at about 3.1. The list shows a part of the results.

Tested on: RBM10 RRM1-ZnF-RRM2 (GST-tagged construct)
Assay: RNAcompete 7-mer binding Z-score; higher = stronger binding preference
How it was run: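 A one-sided Z-score for enrichment, taken across the probes containing each heptamer motif, was assigned to every such motif. The RNA came from a designed pool of 241 399 sequences up to 41 nt (1.5 nmol), bound by 20 pmol of GST-tagged RBM10 constructs in 1 ml Hepes pH 7.8 buffer with glutathione Sepharose beads for 30 min at 4°C. Four 2-min washes at 4°C preceded identification of bound RNA by microarray hybridisation.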

Sequence	RNAcompete 7-mer binding Z-score
UCGUUGU	-0.449
GGAGACU	0.665
CGCUUUU	-0.916
UUAGUGC	-0.315
CCCUAAU	-0.788
ACGUGUA	0.195
UUCGAAG	-0.14
UUCGUGA	-0.366
GGGCCAG	1.25
GCCUCGC	-0.734
UAUUCAU	-0.409
UCUUAAC	-0.795
UUUGCCG	-0.766
CGUCCAC	-0.741
ACACAGG	1.58
GAGCCCA	-0.741
ACAGUAU	-0.133
AAAGUGU	0.388
GGUCACG	0.829
CAAAGGG	2.78
CGACGAG	0.144
GGACGUA	1.16
AUAGAAA	0.41
UUAAGCC	-0.85
AGCUUUG	-0.836

Sequence	RNAcompete 7-mer binding Z-score
UUCAAUC	-0.814
CGUGUUG	0.0604
UCGCGCU	-0.817
UUGAUUC	-0.788
UGGGUUG	2.56
CUCUACG	-0.865
GGGAUAC	2.71
GAGGCAA	1.31
UCUUGGU	-0.428
AGACCUC	-1.12
AGCGCCU	-0.708
AUGAAAA	0.177
GACCGAU	-0.479
UAACGUU	-0.555
GCACUUC	-0.606
UCACGUA	-0.409
UCAAUCU	-0.69
GGAGACC	0.774
AAAGAUC	-0.322
UGACUAA	-0.38
CUAGGAG	0.534
GUCAAUC	-0.315
AAGACCA	-0.307
AUCCACC	-0.628
AGGUGCU	0.701

Sequence	RNAcompete 7-mer binding Z-score
ACCUCGU	-0.814
CCUCCAG	-0.639
CUGUGAG	-0.0525
CAAGCCA	-0.541
CCGUGAG	-0.304
AGCAUUG	-0.0925
UAUAUAA	-0.475
UAUUAAA	-0.46
UAGUUAG	0.363
CUAUGAU	-0.643
ACAACGA	0.162
GCCAUAC	-0.457
GCGGCUA	0.21
UCCUCGA	-0.832
AGCAUGU	-0.307
AUGAAGG	2.82
AUGUCAG	0.0459
UCCUUCU	-0.828
CAAUUUC	-0.879
UGUAUAC	-0.428
AACACGC	-0.369
UAUUAGU	-0.3
GACGACA	0.177
UUUGCUU	-0.828
CUAACGU	-0.617

Sequence	RNAcompete 7-mer binding Z-score
ACCGUCU	-0.916
UAUGUUU	-0.435
CUUUCCC	-0.857
AUGCCUG	-0.785
UACCUUU	-0.901
CUCAGGU	-0.195
CCAACCG	-0.65
ACCGGCG	0.0823
AUCCAAG	-0.318
UUUCGGC	-0.646
CAAGUGG	1.46
UUCAGCG	-0.5
GAGGUCG	1.32
UUGUAGC	-0.624
GAAGCAU	0.228
GUCCUAA	-0.588
CAUUUUG	-0.959
GGCCUUU	-0.708
AGACUUC	-0.963
CGUCGGU	0.0714
UUGAAGC	-0.249
AACUAAU	-0.57
CACCGCA	-0.694
CAUGACU	-0.679
GAAGGUC	1.25

Sequence	RNAcompete 7-mer binding Z-score
UAGAAUG	0.716
CAGCUAG	-0.231
CGGCCUC	-0.683
CAGAUCU	-0.723
AGAGGUG	2.05
CAAGCGG	0.945
GAUCAUC	-0.708
AUGCUGC	-0.599
AGAAGCG	0.399
GGUACUU	0.264
UUUCUCG	-0.734
CCAUAUC	-0.694
UAAUCUA	-0.526
CCGAGGC	0.0568
UGUAUGA	-0.122
AUCCUAC	-0.785
AGUAGUA	0.297
CCGCCUA	-0.748
CAAAAGG	1.19
AUGUGGC	0.84
CUGCGGG	1.23
GGGGCAC	2.17
UAUGCCC	-0.755
CCGGAGA	0.319
UCCUGCC	-0.905

Sequence	RNAcompete 7-mer binding Z-score
AAACGUA	-0.0925
GGCGGGC	1.97
CGGAACC	0.00944
CCCGCCU	-0.843
UAAACAG	-0.0379
CCAAGUC	-0.664
GAUAAGA	0.64
CUCAAGA	-0.763
GAACCAG	-0.0525
GUAAAUG	0.774
CACGCUA	-0.679
UGUACAG	0.519
AUGACGG	1.41
GGGAUUU	1.43
UCUACUG	-0.694
UGAUAUG	0.243
CCUAGAC	-0.839
UCCCCGC	-0.624
UCAUUCA	-0.675
CAGCGGC	0.246
GGACUCG	0.0859
UUGGUCC	-0.628
AAGGCAU	1.32
GGGUGUG	3.51
ACGCGGG	1.81

Sequence	RNAcompete 7-mer binding Z-score
CGCGGUG	0.986
AUGAGAA	0.574
UGAAAAU	-0.278
CAGAAUU	-0.351
ACGGGGC	2.37
UAAGAAA	-0.238
AUGAGGC	1.35
GACCCAU	-1.03
UGGUCUA	0.0823
UACGCUC	-0.526
CCUCACG	-0.806
AAGAGAC	0.141
GGCUCGA	0.0386
AGGGUCU	0.559
UUUUGGC	-0.417
CCAGUCA	-0.511
UUGGUGA	1.39
ACAGGUA	2.6
GGUAUAG	1.99
UUUAGAG	0.0786
UGAAGAU	-0.00877
CCAGGUU	0.0349
UGACGUA	-0.0124
AUAUGAA	0.0677
GUAGCCA	0.283

Sequence	RNAcompete 7-mer binding Z-score
GUACGGC	0.396
CCAAAUU	-0.759
UCUACUU	-0.912
GGCGCCA	-0.187
CGGUCCG	-0.522
AGUUGGC	0.687
GAUUGAC	-0.158
CGCCUUU	-0.967
ACUAACU	-0.839
AGUCCUA	-0.632
GGCUCUC	-0.522
UCUCUGG	-0.595
AUACAGG	1.37
GGUAACU	0.396
AGGCUUC	-0.606
CUGAAUA	-0.584
CACAGGG	2.49
CUUCUGA	-0.766
AUCGAUA	-0.184
UCAUCGC	-0.865
CCGUGCC	-0.777
AUUGCGG	0.541
AUAUAGC	-0.293
CGCUGCU	-0.566
UUACGUA	-0.435

Sequence	RNAcompete 7-mer binding Z-score
UAAUCGU	-0.5
AAUUAUA	-0.435
UCCCCGG	-0.479
GCAUUGU	-0.369
AAUGCUA	-0.442
GUACGUC	-0.388
GAAGCGU	0.534
AGCUCGU	-0.391
ACCCUUC	-0.945
UUGCUCG	-0.708
AAGCUUG	-0.581
ACGGAAU	1.22
UGAUUGA	0.00216
CAUACCC	-0.719
CGCGGGG	2.32
CUUCGUG	-0.551
AGUCUAC	-0.431
GGUGGUA	2.86
ACCGAGG	0.778
CCCUAGA	-0.876
GCCCGUA	-0.781
GUAUCGU	-0.238
GUUGUAG	0.898
CAACCCC	-0.592
AUGAAGA	0.392

Sequence	RNAcompete 7-mer binding Z-score
GAACGCU	-0.544
GCAGAUA	0.104
CUCAAUU	-0.777
AAUCUUG	-0.777
AAGCAAG	0.803
ACUCUGG	-0.657
UCUUGUG	-0.766
UGAAAAA	-0.347
CUGGGGA	1.32
UCGCGUU	-0.602
UUGACUG	-0.475
UAUUGUU	-0.643
UAGCCGG	-0.406
GGGAAUC	1.98
AUUAGUG	0.589
CGACGGG	2.14
AAUCAUU	-0.471
UCAGCUA	-0.646
CGUUAUU	-0.694
ACGCCCG	-0.737
CAGUUAU	-0.511
UCCCUCA	-0.712
AUUGGAU	0.876
UCGAGGG	1.93
CAUAUCG	-0.559

Sequence	RNAcompete 7-mer binding Z-score
GGGGCUG	2.09
CCACUAA	-0.89
GCGACCC	-0.624
AAGGUUG	3.13
GCCGCGA	-0.326
AACAUUU	-0.785
CGAUCAU	-0.555
CGACUAU	-0.832
GCUGGUC	-0.0561
GACCGGG	1.36
ACGCUGA	-0.497
GCUACAA	-0.318
UUAGCCC	-0.883
GCCCACA	-0.744
GUUGUCG	-0.216
UCGUGGA	1.05
GGAACAG	2.44
CUUGAUA	-0.785
CAUUAUU	-0.744
CUUUGUA	-0.839
CGCGCUA	-0.533
CAUAUCU	-0.679
GUGUUCU	-0.65
UGUGACC	-0.176
UGGGAAU	2.42

Sequence	RNAcompete 7-mer binding Z-score
ACAGCAA	-0.0962
GAUUCCG	-0.595
AGCGUUG	0.141
UCGUCAU	-0.431
CGGUCUC	-0.664
UCUCAUU	-0.879
CGUUUUC	-0.701
GUCGGCA	0.425
CAAGUAG	0.53
CACAGUU	-0.624
UAGAUCA	-0.129
CGCUGUC	-0.734
ACUGAUG	-0.154
UACUUUU	-0.85
AAAGUUG	0.0859
UGAAGCU	-0.191
GAGUCCA	-0.34
AGCUAUU	-0.646
AUUUAUG	-0.391
AUCAAUU	-0.672
GAUGAGU	1.01
CACGGCG	0.0349
UCCCUAA	-0.839
UCCCGUC	-0.679
GCCUCGU	-0.781

Sequence	RNAcompete 7-mer binding Z-score
AGUGAGA	1.35
CCUUGUU	-0.901
CACUCUG	-0.967
GGUGUGG	3.86
GAACGGA	2.36
CUCGACU	-0.806
UUUAGGU	0.0932
CGCGGAA	0.319
GGAUAUU	0.956
AUGCUCA	-0.766
AAUGGGG	4.38
AGGACUU	-0.275
UCACCGG	-0.14
GGUGACG	2.24
AAAAAAG	0.159
UGCACCU	-0.628
AGUAACG	0.166
GUAGGGA	4.26
GGCGUUA	0.694
AAGUCGC	-0.406
GCGCAGU	0.0823
GCUACCG	-0.366
GUCGCGC	-0.296
CGAGGUA	1.8
GCGGUUU	0.567

Sequence	RNAcompete 7-mer binding Z-score
UAUCGAA	-0.3
UACCUGA	-0.606
AUAAACA	-0.231
GUCAUAC	-0.435
AACGACU	-0.497
CCACUAG	-0.522
CCUUUAC	-0.952
UGCAUCA	-0.511
GCGAGUU	0.0641
AUUCCAC	-0.774
UAUAUAU	-0.42
GAACAUC	-0.519
UAAGAGG	1.34
AAUUCUU	-0.734
UAUUAGG	0.712
CAUAUCA	-0.519
GCAAACG	0.381
CUAGAAC	-0.519
ACAAGGA	1.94
CUCAAAG	-0.493
ACCUAUC	-0.923
UGCCAUG	-0.653
GGGUUCU	0.563
UGAGACG	0.556
AAUUCGC	-0.588

Sequence	RNAcompete 7-mer binding Z-score
GGGCCGC	0.359
GCUGAGA	0.0058
CUCCGCC	-0.836
UGGCGCA	0.661
AGAACGU	-0.351
UGUUCGU	-0.26
AAAGACC	-0.61
UAUAACA	-0.347
AGGCGUG	1.31
UUAAUUG	-0.46
ACUGAUA	-0.344
UAGAUAG	0.385
GGUUCCG	0.257
UAACCAA	-0.424
GCUAAUC	-0.395
UAGUAAG	0.465
GUGGACU	1.24
